Here are results for 14 molecules from PMC12136788.

B1: chr1:158765746:158766682:-|CDS|ENSG00000197403|control|control|control (ssRNA)
RNA: GGGAGUUCUACAGUCCGACGAUCUUGCACUGAUACGUCUAUAAAUGUCCUAGUAGAUUUUGUUAUAAAUUCCUGCAAGAUCCUAGCCACCUUCCUGCUGAUCCUCUGCUCCUAUGUGCAGAUCAUCUGCACAGUGCUCAGAAUCAACAGAGGAUUGAGCAUCA
B2: chr6:134965076:134965177:-|3pUTR|ENSG00000112339|unk|FALSE|unique (ssRNA)
RNA: GGGAGUUCUACAGUCCGACGAUCAAAGGAACAAUGUGCAAUUGAUAUGUUUUUAGAUGAGAGAGAAAAAUUAAAGCUAAAAUUAGCUGCAAAGAAGUAUUAAUAAUCACCUCUGCAAAAAUUCUAAGUUGCCAACUGGCAAAGCAACAGAGGAUUGAGCAUCA
B3: ENSG00000198589:be:win_7801|CDS|ENSG00000198589|bound_else_gene|NA|bound_elsewhere_windowed (ssRNA)
RNA: GGGAGUUCUACAGUCCGACGAUCGUCUGUGGCUUCUGGGAUAAAAGUUUCAGAGUCUAUUCUACAGACACAGGAAGAUUGAUCCAAGUGGUGUUUGGCCAUUGGGAUGUCGUCACUUGCCUUGCUCGUUCUGAGUCAUAUAUUCAACAGAGGAUUGAGCAUCA
B4: ENSG00000198589:be:win_9501|3pUTR|ENSG00000198589|bound_else_gene|NA|bound_elsewhere_windowed (ssRNA)
RNA: GGGAGUUCUACAGUCCGACGAUCCGAAACAAUGUUAUUUGGUGGUGUAUAAUUCUACUUUUCUAGUAGAUUACUGUGUGGAAUUCUGUGAAAAAUAUUUGAGAAAAGGCCUGUAUUGCAUAAAUAAAUUCUUUGUAUGUUGUGCAACAGAGGAUUGAGCAUCA
B5: chr11:72192224:72192325:+|CDS|ENSG00000110195|unk|total|mutant (ssRNA)
RNA: GGGAGUUCUACAGUCCGACGAUCAGACAUGGCUCAGCGGAUGACAACACAGCUGCUGCUCCUUCCCGUGUGGGUGGCUGCCGCCGGGGAGGCUCAGACAAGGAUUGCAUGGGCCAGGACUGAGCUUCUCAAUGUCUGCAUGAACAACAGAGGAUUGAGCAUCA
B6: chr1:10469171:10469279:-|CDS|ENSG00000160049|unk|FALSE|unique (ssRNA)
RNA: GGGAGUUCUACAGUCCGACGAUCGUGGAUGAUGACGAUUACUUUCUGUGUCUACCUUCCAAUACUAAGUUUGUGGCAUUGGCUAGUAAUGAGAAAUGGGCAUACAACAAUUCAGGUAAGAAACUCUAGCCAUGUAUAAAACGGCAACAGAGGAUUGAGCAUCA
B7: chr19:35513049:35513475:-|CDS|ENSG00000161249|control|control|control (ssRNA)
RNA: GGGAGUUCUACAGUCCGACGAUCUGGCCAAGGGACCAGAGAAGCAGUUGGCACUGGAGUCAGGCAGGUUCCAGGCUUUGGCGUAGCAGAUGCUUUGGGCAACAGGGUCGGGGAAGCAGCCCAUGCUCUGGGAAACACUGGGCACAACAGAGGAUUGAGCAUCA
B8: chr3:120327094:120327202:-|3pUTR|ENSG00000163428|unk|FALSE|unique (ssRNA)
RNA: GGGAGUUCUACAGUCCGACGAUCGAAGAGAAGUCACCAAACACCUAGGGACAGUCCUAGGCCUAGAAAGCCCUUUAAAGUAAUAGUGAAUUGUUUUAAAAUUAAGUUAUUGAGUGGCCUACUGACUACCAUCCAAAAACCUUUCAACAGAGGAUUGAGCAUCA
B9: chr1:229632307:229632408:+|CDS|ENSG00000135763|unk|FALSE|bound_elsewhere (ssRNA)
RNA: GGGAGUUCUACAGUCCGACGAUCAUUUUAUAAGAAAAAGCUUGAACUGAAGGAAGAUAUUGUUGAAAGGCUUUGGAUCUAUAUAGAUAACAUUUUACAUAGCAGAAAAUUGCAGAAUCUCCUCAAGAAUGGAAAGACCAUUAACAACAGAGGAUUGAGCAUCA
B10: chr6:30110447:30110678:-|CDS|ENSG00000204616|control|control|control (ssRNA)
RNA: GGGAGUUCUACAGUCCGACGAUCCCAGGUAGAACAUGAGAAGCAAAGGAUCCUCACAGAAUUUGAACUCCUGCAUCAAGUCCUAGAGGAGGAGAAGAAUUUCCUGCUAUCACGGAUUUACUGGCUGGGUCAUGAGGGAACGGACAACAGAGGAUUGAGCAUCA
B11: chr4:4235611:4235720:-|3pUTR|ENSG00000132406|unk|FALSE|unique (ssRNA)
RNA: GGGAGUUCUACAGUCCGACGAUCAUGAUAGUUUUGUUAGGUGACAGGACCAAAUGAAAAUAUUUUAUGUUUUCUCAUCACUUUAGAUUUUAUCAUUAUGUACAUUACUGGGUUUUUAGCAUUUCCUAAUGUGAAGUUUUAAUCCAACAGAGGAUUGAGCAUCA
B12: ENSG00000198589:be:win_7001|CDS|ENSG00000198589|bound_else_gene|NA|bound_elsewhere_windowed (ssRNA)
RNA: GGGAGUUCUACAGUCCGACGAUCGAGCUUGGCGAAACAGUCAGCGUGAUACCUCUGAUAUUAAGGAGUUGAUCCCUGAAUUUUAUUAUCUCCCUGAGAUGUUUGUCAACUUCAAUAAUUAUAAUCUUGGAGUGAUGGAUGAUGCAACAGAGGAUUGAGCAUCA
B13: chr6:17764380:17764481:-|CDS|ENSG00000137177|msi1|total|mutant (ssRNA)
RNA: GGGAGUUCUACAGUCCGACGAUCCCAGAGCAUCCCUGAGAAAAACUCCAAAUCACUGUGCAGGACUGGCUCAUGUUCAGAACCCGAUGCCUGCCCCAGCAAAAUCCGCCAGCCAGCCAGGGGAUUCUGCCCCAGGGAGGUGACCAACAGAGGAUUGAGCAUCA
B14: chr8:67434037:67434240:-|three_prime_utr|ENSG00000165078|control|control|control (ssRNA)
RNA: GGGAGUUCUACAGUCCGACGAUCCCCUUGUGAUGACACAUACUGUGGCCCUUUUCCAGAAUCUGAGCCGGAAGUGAAGGCUGUAGCUAACUUCCUUCGAAAACACAGAAAGCACAUUAGGGCUUAUCUCUCCUUUCAUGCAUACAACAGAGGAUUGAGCAUCA

The other results are listed elsewhere or left out.

The assay deals with MSI1 full-length (mouse, UniProt Q61474 1-362). Kind of assay: nsRBNS (natural sequence RNA bind-n-seq); RBNS binding buffer (assumed for nsRBNS): 25 mM Tris pH 7.5, 150 mM KCl, 3 mM MgCl2, 0.01% Triton X-100, 500 ug/ml BSA, 20 U/ml SUPERase-In, 4 C; UNK is unkempt and MSI1 is Musashi-1; names of the RNAs are library labels; protein concentration not given here; high values mean tight binding.
Chain of UniProt Q61474 (Q61474 whole entry): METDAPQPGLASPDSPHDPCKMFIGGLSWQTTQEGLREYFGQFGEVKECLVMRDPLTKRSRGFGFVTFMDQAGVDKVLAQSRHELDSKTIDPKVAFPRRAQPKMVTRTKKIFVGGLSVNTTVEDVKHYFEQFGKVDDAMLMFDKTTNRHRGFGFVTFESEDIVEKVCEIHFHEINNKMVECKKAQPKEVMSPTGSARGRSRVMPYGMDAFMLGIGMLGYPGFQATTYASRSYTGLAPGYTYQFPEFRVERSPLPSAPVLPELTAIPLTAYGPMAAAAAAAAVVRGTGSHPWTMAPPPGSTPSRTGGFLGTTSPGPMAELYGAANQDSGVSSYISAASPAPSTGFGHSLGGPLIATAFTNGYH
In turn, B1 came in with a binding signal of 0.99 enrichment R.
B2 showed a binding signal of 2.22 enrichment R.
Molecule B3 came in with a binding signal of 0.319 enrichment R.
As for B4, the binding signal is 0.586 enrichment R.
For B5, the binding signal was found to be 0.403 enrichment R.
B6 gave a binding signal of 0.4 enrichment R.
In turn, B7 had a binding signal of 0.543 enrichment R.
As for B8, the figure is 10 enrichment R.
In the case of B9, the binding signal was 9.48 enrichment R.
With B10 the figure was 0.909 enrichment R; with B11, 5.29 enrichment R; with B12, 0.315 enrichment R.
As for B13, the figure is 0.475 enrichment R.
In turn, B14 showed a binding signal of 0.677 enrichment R.
